# Experimental data published in the supplement of paper PMC12582362.
# Counter-ions that a name gives are not always drawn. The whole screen tested about 1,500 compounds, of which about 30 (2%) showed activity.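 Rule for the calls: active = robust z-score below -2; a few such results were not called.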 Some of the results follow.
# System: optoTopBP1 Flp-In 293 T-REx (HEK293) cells
# Test: light-induced TopBP1 condensate (nuclear foci) count, plate-normalised robust z-score vs non-control wells; higher = more TopBP1 condensates (negative = condensation inhibitor), active = hit call of the paper
# Settings: 10 µM; incubation time 2 h
row,Structure (SMILES),light-induced TopBP1 condensate (z-score)
1,CC(=O)OC[C@H]1O[C@@H](n2ncc(=O)[nH]c2=O)[C@H](OC(C)=O)[C@@H]1OC(C)=O [Azaribine],inactive: 0.84
2,O=C(O)COCCN1CCN(C(c2ccccc2)c2ccc(Cl)cc2)CC1 (stereo unspecified) [Cetirizine dihydrochloride],inactive: 0.614
3,N[C@@H]1CONC1=O [D-cycloserine],inactive: 0.143
4,N=C(N)Nc1ccc(C(=O)Oc2ccc3cc(C(=N)N)ccc3c2)cc1 [Nafamostat Mesylate],inactive: 1.49
5,Clc1ccc(Cn2c(CN3CCCC3)nc3ccccc32)cc1 [Clemizole hydrochloride],inactive: -0.267
6,COc1cc2nc(N(C)CCCNC(=O)C3CCCO3)nc(N)c2cc1OC (stereo unspecified) [Alfuzosin hydrochloride],inactive: 0.142
7,CC(=O)Oc1ccccc1C(=O)O [Acetylsalicylic acid],inactive: -0.801
8,N=C(N)NS(=O)(=O)c1ccc(N)cc1 [Sulfaguanidine],inactive: -0.0573
9,CC1=C(/C=C/C(C)=C/C=C/C(C)=C/C(=O)O)C(C)(C)CCC1 [Retinoic acid],inactive: -0.822
10,NC(=O)c1cc[n+](CC2=C(C(=O)[O-])N3C(=O)[C@@H](NC(=O)[C@@H](c4ccccc4)S(=O)(=O)O)[C@H]3SC2)cc1 [Cefsulodin sodium salt],inactive: 0.128
11,CCc1c(C)[nH]c2c1C(=O)C(CN1CCOCC1)CC2 (stereo unspecified) [Molindone hydrochloride],inactive: 1.21
12,N[C@@H](CCC(=O)N[C@@H](CS)C(=O)NCC(=O)O)C(=O)O [Glutathione],inactive: 1.35
13,CC1=C(C(=O)O)N2C(=O)[C@@H](NC(=O)[C@H](N)C3=CCC=CC3)[C@H]2SC1 [Cephradine monohydrate],inactive: -0.619
14,CCC1(c2ccccc2)NC(=O)N(C)C1=O (stereo unspecified) [Mephenytoin],inactive: 0.477
15,Cc1ncc(CO)c(CO)c1O [Pyridoxine hydrochloride],inactive: -0.223
16,CCN(CC)CCOC(=O)c1ccc(N)cc1 [Procaine hydrochloride],inactive: 0.888
17,CC[C@H](C)C(=O)O[C@H]1C[C@@H](C)C=C2C=C[C@H](C)[C@H](CC[C@@H]3C[C@@H](O)CC(=O)O3)[C@H]21 [Lovastatin],inactive: 0.482
18,Cc1c(C)c2c(c(C)c1O)CCC(C)(C(=O)O)O2 (stereo unspecified) [Trolox],inactive: -0.219
19,CC(=O)N[C@@H](CS)C(=O)O [Acetylcysteine],inactive: 1.19
20,CC(=O)O[C@H]1C[C@@]2(C)[C@@H](C[C@@H](O)[C@H]3[C@@]4(C)CC[C@@H](O)[C@@H](C)[C@@H]4CC[C@@]32C)/C1=C(\CCC=C(C)C)C(=O)O [Fusidic acid sodium salt],inactive: 0.0039
21,CN(C)CCn1nnnc1SCC1=C(C(=O)O)N2C(=O)[C@@H](NC(=O)Cc3csc(N)n3)[C@H]2SC1 [Cefotiam hydrochloride],inactive: 1.13
22,Nc1ccc(S(=O)(=O)Nc2cnc3ccccc3n2)cc1 [Sulfaquinoxaline sodium salt],inactive: 1.12

row,Structure (SMILES),light-induced TopBP1 condensate (z-score)
1,CNC[C@H](O)[C@@H](O)[C@H](O)[C@H](O)CO [Meglumine],inactive: -0.735
2,NCCCC(O)(P(=O)(O)O)P(=O)(O)O [Alendronate sodium],inactive: -0.706
3,NC(=O)OCC(COC(N)=O)c1ccccc1 [Felbamate],inactive: -0.832
4,Cc1ccnc(NS(=O)(=O)c2ccc(N)cc2)n1 [Sulfamerazine],inactive: 1.3
5,C[C@H]1NC(=O)NC1=O [Methylhydantoin-5-(D)],inactive: -0.483
6,N=C(N)NCc1cccc(I)c1 [Iobenguane sulfate],inactive: 0.0541
7,CC(C)(C)c1ccc(C(=O)CCCN2CCC(OC(c3ccccc3)c3ccccc3)CC2)cc1 [Ebastine],inactive: -0.957
8,CNC(=O)c1c(I)c(C(=O)NCC(=O)Nc2c(I)c(C(=O)O)c(I)c(C(=O)NCCO)c2I)c(I)c(N(C)C(C)=O)c1I [Ioxaglic acid],inactive: 1.43
9,CCCCNc1cc(C(=O)O)cc(S(N)(=O)=O)c1Oc1ccccc1 [Bumetanide],inactive: -0.602
10,CCOC(=O)[C@H](CCc1ccccc1)N[C@@H](C)C(=O)N(CC(=O)O)C1Cc2ccccc2C1 [Delapril Hydrochloride],inactive: 0.988
11,CC(=O)Oc1ccccc1C(=O)Oc1ccccc1C(=O)O [Acetylsalicylsalicylic acid],inactive: 0.617
12,Cn1cc(C(=O)[C@@H]2CCc3[nH]cnc3C2)c2ccccc21 [Ramosetron hydrochloride],inactive: -0.549
13,CC(C)NC[C@H](O)COc1cccc2ccccc12 [(S)-propranolol hydrochloride],inactive: 1.1
14,CC(=O)CCCCn1c(=O)c2c(ncn2C)n(C)c1=O [Pentoxifylline],inactive: -0.0825
15,CN1C(=O)OC(C)(C)C1=O [Trimethadione],inactive: 0.285
16,CN(C/C=C/c1ccccc1)Cc1cccc2ccccc12 [Naftifine hydrochloride],inactive: 0.672
17,OCCN1CCN(CCCN2c3ccccc3C=Cc3ccccc32)CC1 [Opipramol dihydrochloride],inactive: -0.102
18,Nc1c(CC(=O)O)cccc1C(=O)c1ccc(Br)cc1 [Bromfenac],inactive: -1.27
19,CCCC(CCC)C(=O)O[C@H]1C[C@H]2CC[C@@H](C1)[N+]2(C)C [Anisotropine Methylbromide],inactive: 0.12
20,CN(C)CCCSC(=N)N [Dimaprit dihydrochloride],inactive: 1.17
21,C[C@H](Cc1cc2c(c(C(N)=O)c1)N(CCCO)CC2)NCCOc1ccccc1OCC(F)(F)F [Silodosin],inactive: -0.709
22,Cc1onc(-c2c(F)cccc2Cl)c1C(=O)N[C@@H]1C(=O)N2[C@@H]1SC(C)(C)[C@@H]2C(=O)O [Flucloxacillin sodium],inactive: 1.42

row,Structure (SMILES),light-induced TopBP1 condensate (z-score)
1,O=C(NCCN1CCOCC1)c1ccc(Cl)cc1 [Moclobemide],inactive: 0.419
2,NS(=O)(=O)c1cc(Cl)c(Cl)c(S(N)(=O)=O)c1 [Dichlorphenamide],inactive: 0.657
3,CCN1CCCC(OC(=O)C(c2ccccc2)c2ccccc2)C1 (stereo unspecified) [Piperidolate hydrochloride],inactive: 0.54
4,C[C@@H]1C[C@H]2[C@@H]3C[C@H](F)C4=CC(=O)C=C[C@]4(C)[C@@]3(Cl)[C@@H](O)C[C@]2(C)[C@H]1C(=O)COC(=O)C(C)(C)C [Clocortolone pivalate],inactive: -0.381
5,OC(c1cc(C(F)(F)F)nc2c(C(F)(F)F)cccc12)C1CCCCN1 (stereo unspecified) [Mefloquine hydrochloride],inactive: -1.69
6,CNCCCC12CCC(c3ccccc31)c1ccccc12 [Maprotiline hydrochloride],inactive: -0.0912
7,C[C@]12C=CC(=O)C=C1CC[C@H]1[C@@H]3C[C@@H](O)[C@](O)(C(=O)CO)[C@@]3(C)C[C@H](O)[C@@]12F [Triamcinolone],inactive: 0.152
8,CC1(C)O[C@@H]2C[C@H]3[C@@H]4CCC5=CC(=O)CC[C@]5(C)[C@@]4(F)[C@@H](O)C[C@]3(C)[C@]2(C(=O)CCl)O1 [Halcinonide],inactive: 0.276
9,CCN(CC)C(=O)/C(C#N)=C/c1cc(O)c(O)c([N+](=O)[O-])c1 [Entacapone],inactive: 0.112
10,C[C@@H](O)[C@H]1C(=O)N2C(C(=O)O)=C(S[C@@H]3CN[C@H](C(=O)N(C)C)C3)[C@H](C)[C@H]12 [Meropenem],inactive: 0.541
11,CC(=O)O[C@H]1C[C@@H]2CC[C@@H]3[C@H](CC[C@@]4(C)[C@H]3C[C@H]([N+]3(C)CCCCC3)[C@@H]4OC(C)=O)[C@@]2(C)C[C@@H]1N1CCCCC1 [Vecuronium bromide],inactive: 0.392
12,CCCCN(CCCC)CCC(O)c1cc2c(Cl)cc(Cl)cc2c2cc(C(F)(F)F)ccc12 (stereo unspecified) [Halofantrine hydrochloride],inactive: -0.232
13,C#C[C@]1(O)CC[C@H]2[C@@H]3CCc4cc(O)ccc4[C@H]3CC[C@@]21C [Ethinylestradiol],inactive: 0.709
14,CCOC(=O)C1=C(C)NC(C)=C(C(=O)OCC)C1c1ccccc1/C=C/C(=O)OC(C)(C)C [Lacidipine],inactive: -0.21
15,CCOc1cc(CC(=O)N[C@@H](CC(C)C)c2ccccc2N2CCCCC2)ccc1C(=O)O [Repaglinide],inactive: -0.108
16,CC(=O)OCC(=O)[C@@]1(O)[C@H](C)C[C@H]2[C@@H]3CCC4=CC(=O)C=C[C@]4(C)[C@@]3(F)[C@@H](O)C[C@@]21C [Dexamethasone acetate],inactive: 0.214
17,COc1ncnc(NS(=O)(=O)c2ccc(N)cc2)c1OC [Sulfadoxine],inactive: 0.123
18,COc1ccc(C(=O)c2ccccc2)c(O)c1 [Oxybenzone],inactive: -0.628
19,COc1c(N2C[C@@H]3CCCN[C@@H]3C2)c(F)cc2c(=O)c(C(=O)O)cn(C3CC3)c12 [Moxifloxacin],inactive: -0.794
20,CCCCOC(=O)c1ccccc1Nc1cccc(C(F)(F)F)c1 [Ufenamate],inactive: -0.0275
21,COc1ccc(C(=O)CC(=O)c2ccc(C(C)(C)C)cc2)cc1 [Avobenzone],inactive: -0.658
22,Nc1nc2c(ncn2COCCO)c(=O)[nH]1 [Acyclovir],inactive: 0.582
